{"source": "paper PMC10928841", "about": "“Ames test study designs for nitrosamine mutagenicity testing: qualitative and quantitative analysis of key assay parameters” (Mutagenesis, 2023)", "key": {"[1]": {"system": "S. typhimurium TA98, TA100, TA1535, TA1537 and E. coli WP2uvrA pKM101", "experiment": "Ames test, plate incorporation method, overall result of five strains", "details": "up to 5000 µg/plate"}, "[2]": {"system": "S. typhimurium TA98, TA100, TA1535, TA1537 and E. coli WP2uvrA pKM101", "experiment": "Ames test, pre-incubation method, overall result of five strains", "details": "pre-incubation, up to 5000 µg/plate"}, "[3]": {"system": "S. typhimurium TA100", "experiment": "Ames test, plate incorporation method, TA100", "details": "S9 hamster, up to 5000 µg/plate"}, "[4]": {"system": "S. typhimurium TA1535", "experiment": "Ames test, plate incorporation method, TA1535", "details": "S9 hamster, up to 5000 µg/plate"}, "[5]": {"system": "S. typhimurium TA98", "experiment": "Ames test, pre-incubation method, TA98", "details": "S9 hamster, up to 5000 µg/plate"}, "[6]": {"system": "S. typhimurium TA100", "experiment": "Ames test, pre-incubation method, TA100", "details": "up to 5000 µg/plate"}, "[7]": {"system": "S. typhimurium TA1535", "experiment": "Ames test, pre-incubation method, TA1535", "details": "up to 5000 µg/plate"}, "[8]": {"system": "S. typhimurium TA98", "experiment": "Ames test, plate incorporation method, TA98", "details": "S9 hamster, up to 5000 µg/plate"}}}
{"smiles": "CCN(CC)N=O", "note": "[NDEA, N-nitrosodiethylamine]", "values": [{"measurement": "Ames test Result", "setting": "[1]; S9 hamster, vehicle DMSO", "value": "Positive"}, {"measurement": "Ames test Result", "setting": "[1]; S9 hamster, vehicle methanol", "value": "Positive"}, {"measurement": "Ames test Result", "setting": "[1]; S9 hamster, vehicle water", "value": "Positive"}, {"measurement": "Ames test Result", "setting": "[1]; S9 rat, vehicle DMSO", "value": "Positive"}, {"measurement": "Ames test Result", "setting": "[1]; S9 rat, vehicle methanol", "value": "Positive"}, {"measurement": "Ames test Result", "setting": "[1]; S9 rat, vehicle water", "value": "Positive"}, {"measurement": "Ames test Result", "setting": "[2]; S9 hamster, vehicle DHF", "value": "Positive"}, {"measurement": "Ames test Result", "setting": "[2]; S9 hamster, vehicle DMF", "value": "Positive"}, {"measurement": "Ames test Result", "setting": "[2]; S9 hamster, vehicle DMSO", "value": "Positive"}, {"measurement": "Ames test Result", "setting": "[2]; S9 hamster, vehicle NMP", "value": "Positive"}, {"measurement": "Ames test Result", "setting": "[2]; S9 hamster, vehicle acetone", "value": "Positive"}, {"measurement": "Ames test Result", "setting": "[2]; S9 hamster, vehicle acetonitrile", "value": "Positive"}, {"measurement": "Ames test Result", "setting": "[2]; S9 hamster, vehicle methanol", "value": "Positive"}, {"measurement": "Ames test Result", "setting": "[2]; S9 hamster, vehicle water", "value": "Positive"}, {"measurement": "Ames test Result", "setting": "[2]; S9 rat, vehicle DHF", "value": "Positive"}, {"measurement": "Ames test Result", "setting": "[2]; S9 rat, vehicle DMF", "value": "Negative"}, {"measurement": "Ames test Result", "setting": "[2]; S9 rat, vehicle DMSO", "value": "Positive"}, {"measurement": "Ames test Result", "setting": "[2]; S9 rat, vehicle NMP", "value": "Negative"}, {"measurement": "Ames test Result", "setting": "[2]; S9 rat, vehicle acetone", "value": "Positive"}, {"measurement": "Ames test Result", "setting": "[2]; S9 rat, vehicle acetonitrile", "value": "Positive"}, {"measurement": "Ames test Result", "setting": "[2]; S9 rat, vehicle methanol", "value": "Positive"}, {"measurement": "Ames test Result", "setting": "[2]; S9 rat, vehicle water", "value": "Positive"}, {"measurement": "Ames test strain TA100", "setting": "[3]; vehicle DMSO", "value": "+ (positive for mutagenicity, if a biologically relevant increase in the mean number of revertant colonies above a threshold of 2-fold (TA98, TA100, WP2 uvrA))"}, {"measurement": "Ames test strain TA100", "setting": "[3]; vehicle methanol", "value": "+ (positive for mutagenicity, if a biologically relevant increase in the mean number of revertant colonies above a threshold of 2-fold (TA98, TA100, WP2 uvrA))"}, {"measurement": "Ames test strain TA100", "setting": "[3]; vehicle water", "value": "+ (positive for mutagenicity, if a biologically relevant increase in the mean number of revertant colonies above a threshold of 2-fold (TA98, TA100, WP2 uvrA))"}, {"measurement": "Ames test strain TA1535", "setting": "[4]; vehicle DMSO", "value": "+ (positive for mutagenicity, if a biologically relevant increase in the mean number of revertant colonies above a threshold of 2-fold (TA98, TA100, WP2 uvrA) or 3-fold (TA1535, TA1537))"}, {"measurement": "Ames test strain TA1535", "setting": "[4]; vehicle methanol", "value": "+ (positive for mutagenicity, if a biologically relevant increase in the mean number of revertant colonies above a threshold of 2-fold (TA98, TA100, WP2 uvrA) or 3-fold (TA1535, TA1537))"}, {"measurement": "Ames test strain TA1535", "setting": "[4]; vehicle water", "value": "+ (positive for mutagenicity, if a biologically relevant increase in the mean number of revertant colonies above a threshold of 2-fold (TA98, TA100, WP2 uvrA) or 3-fold (TA1535, TA1537))"}, {"measurement": "Ames test strain TA98", "setting": "[5]; vehicle DMSO", "value": "+ (positive for mutagenicity, if a biologically relevant increase in the mean number of revertant colonies above a threshold of 2-fold (TA98, TA100, WP2 uvrA))"}, {"measurement": "Ames test strain TA98", "setting": "[5]; vehicle methanol", "value": "+ (positive for mutagenicity, if a biologically relevant increase in the mean number of revertant colonies above a threshold of 2-fold (TA98, TA100, WP2 uvrA))"}, {"measurement": "Ames test strain TA98", "setting": "[5]; vehicle water", "value": "+ (positive for mutagenicity, if a biologically relevant increase in the mean number of revertant colonies above a threshold of 2-fold (TA98, TA100, WP2 uvrA))"}, {"measurement": "Ames test strain TA100", "setting": "[6]; S9 hamster, vehicle DHF", "value": "+ (positive for mutagenicity, if a biologically relevant increase in the mean number of revertant colonies above a threshold of 2-fold (TA98, TA100, WP2 uvrA))"}, {"measurement": "Ames test strain TA100", "setting": "[6]; S9 hamster, vehicle DMF", "value": "+ (positive for mutagenicity, if a biologically relevant increase in the mean number of revertant colonies above a threshold of 2-fold (TA98, TA100, WP2 uvrA))"}, {"measurement": "Ames test strain TA100", "setting": "[6]; S9 hamster, vehicle DMSO", "value": "+ (positive for mutagenicity, if a biologically relevant increase in the mean number of revertant colonies above a threshold of 2-fold (TA98, TA100, WP2 uvrA))"}, {"measurement": "Ames test strain TA100", "setting": "[6]; S9 hamster, vehicle acetone", "value": "+ (positive for mutagenicity, if a biologically relevant increase in the mean number of revertant colonies above a threshold of 2-fold (TA98, TA100, WP2 uvrA))"}, {"measurement": "Ames test strain TA100", "setting": "[6]; S9 hamster, vehicle methanol", "value": "+ (positive for mutagenicity, if a biologically relevant increase in the mean number of revertant colonies above a threshold of 2-fold (TA98, TA100, WP2 uvrA))"}, {"measurement": "Ames test strain TA100", "setting": "[6]; S9 hamster, vehicle water", "value": "+ (positive for mutagenicity, if a biologically relevant increase in the mean number of revertant colonies above a threshold of 2-fold (TA98, TA100, WP2 uvrA))"}, {"measurement": "Ames test strain TA100", "setting": "[6]; S9 rat, vehicle DHF", "value": "+ (positive for mutagenicity, if a biologically relevant increase in the mean number of revertant colonies above a threshold of 2-fold (TA98, TA100, WP2 uvrA))"}, {"measurement": "Ames test strain TA1535", "setting": "[7]; S9 hamster, vehicle DMF", "value": "+ (positive for mutagenicity, if a biologically relevant increase in the mean number of revertant colonies above a threshold of 2-fold (TA98, TA100, WP2 uvrA) or 3-fold (TA1535, TA1537))"}, {"measurement": "Ames test strain TA1535", "setting": "[7]; S9 hamster, vehicle DMSO", "value": "+ (positive for mutagenicity, if a biologically relevant increase in the mean number of revertant colonies above a threshold of 2-fold (TA98, TA100, WP2 uvrA) or 3-fold (TA1535, TA1537))"}, {"measurement": "Ames test strain TA1535", "setting": "[7]; S9 hamster, vehicle acetone", "value": "+ (positive for mutagenicity, if a biologically relevant increase in the mean number of revertant colonies above a threshold of 2-fold (TA98, TA100, WP2 uvrA) or 3-fold (TA1535, TA1537))"}, {"measurement": "Ames test strain TA1535", "setting": "[7]; S9 hamster, vehicle methanol", "value": "+ (positive for mutagenicity, if a biologically relevant increase in the mean number of revertant colonies above a threshold of 2-fold (TA98, TA100, WP2 uvrA) or 3-fold (TA1535, TA1537))"}, {"measurement": "Ames test strain TA1535", "setting": "[7]; S9 hamster, vehicle water", "value": "+ (positive for mutagenicity, if a biologically relevant increase in the mean number of revertant colonies above a threshold of 2-fold (TA98, TA100, WP2 uvrA) or 3-fold (TA1535, TA1537))"}, {"measurement": "Ames test strain TA1535", "setting": "[7]; S9 rat, vehicle acetone", "value": "+ (positive for mutagenicity, if a biologically relevant increase in the mean number of revertant colonies above a threshold of 2-fold (TA98, TA100, WP2 uvrA) or 3-fold (TA1535, TA1537))"}, {"measurement": "Ames test strain TA98", "setting": "[8]; vehicle DMSO", "value": "+ (positive for mutagenicity, if a biologically relevant increase in the mean number of revertant colonies above a threshold of 2-fold (TA98, TA100, WP2 uvrA))"}, {"measurement": "Ames test strain TA98", "setting": "[8]; vehicle methanol", "value": "+ (positive for mutagenicity, if a biologically relevant increase in the mean number of revertant colonies above a threshold of 2-fold (TA98, TA100, WP2 uvrA))"}, {"measurement": "Ames test strain TA98", "setting": "[8]; vehicle water", "value": "+ (positive for mutagenicity, if a biologically relevant increase in the mean number of revertant colonies above a threshold of 2-fold (TA98, TA100, WP2 uvrA))"}]}
